# Results: article PMC8039031
# By UniProt entry, the sequences of proteins in these tests, tags left out. Where a name states a change or a piece, a line headed by the entry shows the natural chain unless it says otherwise.
# UniProt P40763: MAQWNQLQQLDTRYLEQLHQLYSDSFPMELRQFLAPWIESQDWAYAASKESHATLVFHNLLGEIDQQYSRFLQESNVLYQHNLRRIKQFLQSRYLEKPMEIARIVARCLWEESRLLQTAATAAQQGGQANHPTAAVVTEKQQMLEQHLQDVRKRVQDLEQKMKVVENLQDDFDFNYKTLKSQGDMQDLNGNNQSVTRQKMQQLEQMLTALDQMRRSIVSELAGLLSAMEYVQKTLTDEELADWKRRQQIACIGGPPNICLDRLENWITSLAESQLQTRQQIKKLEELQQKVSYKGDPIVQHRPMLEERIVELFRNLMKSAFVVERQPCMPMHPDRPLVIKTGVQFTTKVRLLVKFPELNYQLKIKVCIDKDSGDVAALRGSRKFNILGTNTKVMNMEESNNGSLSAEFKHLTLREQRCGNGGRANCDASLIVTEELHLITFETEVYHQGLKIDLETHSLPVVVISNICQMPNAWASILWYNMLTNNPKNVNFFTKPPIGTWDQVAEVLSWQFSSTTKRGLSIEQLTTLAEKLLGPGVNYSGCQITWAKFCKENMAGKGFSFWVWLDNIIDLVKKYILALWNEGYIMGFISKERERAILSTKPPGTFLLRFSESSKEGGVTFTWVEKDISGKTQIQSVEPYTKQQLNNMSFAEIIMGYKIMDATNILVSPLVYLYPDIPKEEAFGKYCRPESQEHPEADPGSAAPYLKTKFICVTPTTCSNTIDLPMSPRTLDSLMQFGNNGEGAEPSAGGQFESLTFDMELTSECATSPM
# UniProt Q09472: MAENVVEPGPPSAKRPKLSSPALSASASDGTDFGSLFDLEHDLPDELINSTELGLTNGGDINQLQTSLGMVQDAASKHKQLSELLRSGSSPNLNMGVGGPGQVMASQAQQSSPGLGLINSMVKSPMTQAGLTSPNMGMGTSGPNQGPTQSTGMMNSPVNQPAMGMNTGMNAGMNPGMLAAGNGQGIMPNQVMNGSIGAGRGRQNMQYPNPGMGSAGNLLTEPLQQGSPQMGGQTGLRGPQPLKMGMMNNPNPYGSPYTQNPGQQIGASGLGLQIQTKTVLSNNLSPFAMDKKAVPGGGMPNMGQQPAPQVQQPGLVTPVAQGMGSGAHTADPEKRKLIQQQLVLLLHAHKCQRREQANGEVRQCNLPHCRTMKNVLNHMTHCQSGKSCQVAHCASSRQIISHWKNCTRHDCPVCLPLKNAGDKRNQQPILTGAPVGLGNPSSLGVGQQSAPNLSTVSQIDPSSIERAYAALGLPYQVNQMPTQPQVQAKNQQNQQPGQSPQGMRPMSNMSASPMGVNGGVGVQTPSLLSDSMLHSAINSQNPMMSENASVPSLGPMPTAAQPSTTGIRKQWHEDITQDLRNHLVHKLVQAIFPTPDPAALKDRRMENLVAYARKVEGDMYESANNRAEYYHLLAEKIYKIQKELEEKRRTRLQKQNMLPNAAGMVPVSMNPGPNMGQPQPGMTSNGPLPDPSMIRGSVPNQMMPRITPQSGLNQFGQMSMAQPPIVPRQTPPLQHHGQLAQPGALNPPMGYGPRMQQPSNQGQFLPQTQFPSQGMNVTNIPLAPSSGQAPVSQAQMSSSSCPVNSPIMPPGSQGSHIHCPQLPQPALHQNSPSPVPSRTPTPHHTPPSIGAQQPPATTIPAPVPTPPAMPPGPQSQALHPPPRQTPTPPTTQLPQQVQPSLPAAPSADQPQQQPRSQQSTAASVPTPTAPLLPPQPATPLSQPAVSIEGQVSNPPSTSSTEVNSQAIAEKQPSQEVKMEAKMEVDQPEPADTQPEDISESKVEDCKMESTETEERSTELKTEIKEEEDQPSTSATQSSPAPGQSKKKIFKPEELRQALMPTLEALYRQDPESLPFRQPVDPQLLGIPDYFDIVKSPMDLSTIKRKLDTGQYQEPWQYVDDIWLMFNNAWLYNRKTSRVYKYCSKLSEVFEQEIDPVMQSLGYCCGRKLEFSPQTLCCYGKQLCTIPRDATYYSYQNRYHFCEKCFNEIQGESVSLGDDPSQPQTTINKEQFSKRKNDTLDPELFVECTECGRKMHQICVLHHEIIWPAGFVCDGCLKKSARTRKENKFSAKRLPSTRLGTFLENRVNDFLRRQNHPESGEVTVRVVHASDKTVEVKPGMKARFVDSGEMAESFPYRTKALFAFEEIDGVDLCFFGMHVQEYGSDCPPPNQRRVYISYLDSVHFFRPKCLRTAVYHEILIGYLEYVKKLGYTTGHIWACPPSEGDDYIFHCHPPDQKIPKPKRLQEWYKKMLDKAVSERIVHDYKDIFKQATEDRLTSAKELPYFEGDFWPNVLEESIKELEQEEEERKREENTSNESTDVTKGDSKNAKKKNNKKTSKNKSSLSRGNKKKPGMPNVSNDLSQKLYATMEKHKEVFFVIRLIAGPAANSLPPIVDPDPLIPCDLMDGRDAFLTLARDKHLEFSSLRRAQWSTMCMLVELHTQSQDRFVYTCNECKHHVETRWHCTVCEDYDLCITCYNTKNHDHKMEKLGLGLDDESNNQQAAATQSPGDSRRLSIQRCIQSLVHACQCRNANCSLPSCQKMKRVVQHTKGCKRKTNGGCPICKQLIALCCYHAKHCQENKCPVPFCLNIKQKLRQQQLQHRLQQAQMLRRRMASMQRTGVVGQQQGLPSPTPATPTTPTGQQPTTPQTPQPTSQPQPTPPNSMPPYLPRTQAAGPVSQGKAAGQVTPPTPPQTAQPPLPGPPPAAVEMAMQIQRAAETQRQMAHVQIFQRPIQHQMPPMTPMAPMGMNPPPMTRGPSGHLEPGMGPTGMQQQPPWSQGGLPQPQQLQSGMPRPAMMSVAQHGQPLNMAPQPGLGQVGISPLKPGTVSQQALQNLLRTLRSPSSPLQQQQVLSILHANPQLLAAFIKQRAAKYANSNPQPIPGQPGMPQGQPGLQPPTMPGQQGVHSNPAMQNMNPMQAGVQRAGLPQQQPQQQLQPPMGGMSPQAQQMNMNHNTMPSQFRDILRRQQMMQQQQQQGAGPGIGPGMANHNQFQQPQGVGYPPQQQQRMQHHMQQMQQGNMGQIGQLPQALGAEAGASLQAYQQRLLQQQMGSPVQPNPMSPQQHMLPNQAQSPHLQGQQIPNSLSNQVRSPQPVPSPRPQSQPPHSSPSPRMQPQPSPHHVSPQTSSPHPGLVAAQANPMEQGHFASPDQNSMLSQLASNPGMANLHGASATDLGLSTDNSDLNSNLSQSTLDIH
# UniProt Q92830: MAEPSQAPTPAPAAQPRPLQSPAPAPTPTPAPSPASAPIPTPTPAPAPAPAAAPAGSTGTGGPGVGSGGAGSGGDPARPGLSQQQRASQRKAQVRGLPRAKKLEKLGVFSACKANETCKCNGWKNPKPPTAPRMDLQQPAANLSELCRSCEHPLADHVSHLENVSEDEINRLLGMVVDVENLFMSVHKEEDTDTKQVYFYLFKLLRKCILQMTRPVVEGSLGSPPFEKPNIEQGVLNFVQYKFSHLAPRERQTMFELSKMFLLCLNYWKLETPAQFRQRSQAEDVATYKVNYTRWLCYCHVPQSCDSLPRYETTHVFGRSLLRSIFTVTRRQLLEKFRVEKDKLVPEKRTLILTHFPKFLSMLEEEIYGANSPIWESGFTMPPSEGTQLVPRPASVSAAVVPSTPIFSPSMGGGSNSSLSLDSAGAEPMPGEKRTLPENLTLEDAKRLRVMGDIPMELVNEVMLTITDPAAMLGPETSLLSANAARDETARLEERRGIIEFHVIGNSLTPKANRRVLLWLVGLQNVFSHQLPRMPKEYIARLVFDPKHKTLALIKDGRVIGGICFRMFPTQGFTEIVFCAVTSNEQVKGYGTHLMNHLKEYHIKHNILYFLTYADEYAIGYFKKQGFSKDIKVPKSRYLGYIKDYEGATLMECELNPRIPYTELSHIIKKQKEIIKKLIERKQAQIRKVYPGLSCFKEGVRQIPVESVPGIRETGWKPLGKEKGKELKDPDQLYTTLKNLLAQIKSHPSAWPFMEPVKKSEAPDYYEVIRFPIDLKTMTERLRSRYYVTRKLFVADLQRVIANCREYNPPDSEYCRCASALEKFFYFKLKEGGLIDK
# No constants are given. Whether binding was seen depends on the method and setting. For part of these data: In cells and extracts the contact can be indirect. Some results given as binding are weak or reduced against the parent protein; the word gives no strength. For part of these data: Where a sequence is shown, tags or fusion partners need not be part of it.
# Key:
# [1] = biological target: T1, Myc-CREPT (cell cycle-related and elevated-expression protein in tumours, RPRD1B) (UniProt Q9NQG5); assay: co-IP; exogenously expressed proteins, cells treated with LIF; HEK293T (Fig. 4a); cells of Fig. 4c not stated
# T1 sequence: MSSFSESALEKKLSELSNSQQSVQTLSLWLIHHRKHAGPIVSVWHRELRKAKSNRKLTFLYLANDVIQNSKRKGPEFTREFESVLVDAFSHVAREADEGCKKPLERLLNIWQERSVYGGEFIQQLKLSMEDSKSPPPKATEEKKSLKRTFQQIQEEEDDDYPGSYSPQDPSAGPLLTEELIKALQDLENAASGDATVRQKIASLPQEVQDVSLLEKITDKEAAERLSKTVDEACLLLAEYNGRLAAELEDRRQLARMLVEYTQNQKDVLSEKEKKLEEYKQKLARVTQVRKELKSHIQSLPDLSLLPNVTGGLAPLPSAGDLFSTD
# [2] = biological target: T2, endogenous CREPT (human (endogenous in MCF7 and SW480)) (UniProt Q9NQG5); assay: co-IP; MCF7 cell lysates under LIF stimulation precipitated by an anti-CREPT antibody (Fig. 5h)
# T2 sequence: T1 sequence
# [3] = biological target: T2, endogenous CREPT (human (endogenous in MCF7 and SW480)); assay: co-IP; endogenous proteins; nuclear extracts of MCF7 or SW480 cells immunoprecipitated with an anti-CREPT antibody, with or without LIF
# [4] = biological target: T1, Myc-CREPT (cell cycle-related and elevated-expression protein in tumours, RPRD1B); assay: co-IP; cytoplasmic and nuclear fractions, with or without LIF (Fig. 4b)
# [5] = biological target: T1, Myc-CREPT (cell cycle-related and elevated-expression protein in tumours, RPRD1B); assay: co-IP; exogenously expressed proteins, cells without LIF; HEK293T (Fig. 4a); cells of Fig. 4c not stated
# GST-CREPT [6] = biological target: T3, GST-CREPT (UniProt Q9NQG5); assay: pull-down; GST-CREPT purified from E. coli with Flag-STAT3 from untreated HEK293T cells (Fig. 4d); both purified
# T3 sequence: T1 sequence
# GST-CREPT [7] = biological target: T3, GST-CREPT; assay: pull-down; GST-CREPT purified from E. coli with Flag-STAT3 purified from HEK293T cells under LIF stimulation (Fig. 4d); both purified
# [8] = biological target: Flag-STAT3 expressed in MCF7 cells (UniProt P40763); assay: co-IP; Flag-STAT3 in MCF7 cells, co-expressed with Myc-CREPT or with siRNAs against endogenous CREPT, under LIF stimulation (Fig. 5i-k)
Substance,binding [1],binding [2],binding [3],binding [8],further results
STAT3Y705F (from UniProt P40763 1-770),no binding,–,–,–,–
endogenous STAT3 (from UniProt P40763 1-770),–,binds,binds,–,–
Flag-STAT3 (signal transducer and activator of transcription 3) (from UniProt P40763 1-770),binds,–,–,–,binding [4]: binds; binding [5]: no binding (condition: cells without LIF); binding (GST-CREPT [6]): no binding (condition: Flag-STAT3 from cells without LIF); binding (GST-CREPT [7]): binds
endogenous p300 (from UniProt Q09472 1-2414),–,binds,binds,binds,–
GCN5 (from UniProt Q92830 1-837),–,–,–,binds,–
